Measured values reported in the RNAGym collection of RNA variant scans (doi:10.7554/elife.90254).
The source gives no read counts; variants with many changes may rest on few reads.

B1: LINE1-full (parent)
chain: UACGUAGGUGGUUUUCCCCUGAUAGUGCUAAGGGGGCCUGGAAGUUUGGACUGGGCAGAGCUCAACACAGCGUGGCAAAGUGGCUGUGGCUAGACUGCCUCUCUGGAUUCCUCGUCACUCAGCAGGGCAUCUCUGAGAGAAAUGCC

Variants of: B1
Assay: self-cleavage, relative activity (ratio to wild type); higher = more cleavage; in vitro, sequencing; the parent is a self-cleaving ribozyme

| Variant | self-cleavage |
| --- | --- |
| A24G A65U C98U | 0.15 |
| A24G U45C A77G | 2.58 |
| U12G U15A G40U A64U A141G | 0.44 |
| U5C U39C U46A A64G U143A | 0.28 |
| U12C C38U A42G C76U | 1.29 |
| U46C A57G A140G | 0.64 |
| A22U U47A G74A A129U A138G | 0.65 |
| U81C A124U U134A | 1.18 |
| U9A U13C C123U | 0.73 |
| U9A A59G A107G | 0 |
| U29A A31G U39A G122A | 1.22 |
| A30G A79U A107G | 1.18 |
| A24G U96A C120U | 0.12 |
| U81G A94G U112A | 0.56 |
| G8C U20C U26C | 2.51 |
| A24G A77G C101U A124C | 1.53 |
| U13C A69U G74A U100A A107U U119C | 0 |
| G83U A138G A142G | 1.06 |
| U9A A92G A140G | 0.33 |
| U115C A129U U143C | 1.68 |
| U14G A94G U96A | 0.12 |
| C3A G21A A57U | 0.09 |
| U29C A69G U119C | 0.92 |
| G32U U96A A138U | 0.05 |

| Variant | self-cleavage |
| --- | --- |
| C61U A94G U115C | 0.03 |
| A69G C71A U112C | 0.08 |
| A77U G88A A124G | 0.03 |
| U109C U112A U132C | 1.57 |
| U29C A57G A121G A138G | 0 |
| A42G A94U A140G | 0 |
| U29C U87C U100A U112C A140G | 0 |
| U20A A31U A79G U85C U100C | 1.84 |
| U45C A92G U132C | 0.11 |
| U5C A22G A57U | 0.68 |
| A42G U47A A142U U143A | 0.98 |
| U91C A92U U102A A140G | 0.37 |
| G34U A78G U112A | 0.79 |
| A24G A77U U143C | 1.14 |
| A79U U96C U119C A140U | 0.29 |
| U14A U20A A50G | 0 |
| G27A A65G A121G A141G C145A | 0 |
| G54U A57G U132C | 0.24 |
| G53A A67U A124G | 0.01 |
| U29C A69G U104C | 0 |
| C37G A77U G114U | 1.03 |
| G11A A94G A140G | 0.23 |
| U26C C37U A67G A77U U115G A141G | 0.69 |
| G7U A67G U85A | 0.11 |

| Variant | self-cleavage |
| --- | --- |
| U13C U45C A59G U115A | 0 |
| A57G A92G U112C A117U | 0 |
| U46C U96A C98A U115A | 0.04 |
| A57G U132C A142G | 0.59 |
| G35A U47A A59U A77G | 1.06 |
| U20C U47A G58A A67U G80A U102C U112A | 0 |
| A2G A42G U73C A141U | 1.41 |
| U20G U39A A79G | 0.7 |
| A92G U119C G126C G127U U132C | 0.06 |
| U39A U81A A92G A138G | 0.11 |
| U14C A65G U102C U104A | 0 |
| G32A A78U A121U | 1.88 |
| G35A A67G G72A U81C | 0.26 |
| C37U U39C A79G G137A | 1.28 |
| A24G A78U U119C | 2.13 |
| G49C A67C U85A | 0.02 |
| U52C U85C U100C | 0 |
| U12C A59U A65G A124G A140G | 0 |
| U9C U62C A64U U87C U100C | 0.2 |
| A22G C68A A121U | 0.08 |
| U15C A30U A79G G137U | 0.67 |
| U13C G32A C99U | 0.62 |
| U45C U85C A94G C145U | 0.24 |
| U20C A92G U100C | 0.35 |

| Variant | self-cleavage |
| --- | --- |
| U20C U47A U73C U96C A142G | 0.41 |
| G27A U46C A92U C98U | 0.2 |
| U62C A64G A121G A142G | 0 |
| A2G A42U A78G A121G | 0 |
| U12G C56U U62C A65G A77G A129G | 0.44 |
| U12G A107G G127A | 0.87 |
| U62C U85A U100C | 0.04 |
| U20A U52A U130C | 2.16 |
| U5C U15C C63U | 0.16 |
| U26C U85A G93A G126A A141U | 0.01 |
| U12C U47C A50G | 1.91 |
| G8A A117U A129G | 1.15 |
| G54A G82A U102C A117G | 0.31 |
| A69G U112C G122A A140G | 0.09 |
| A59G C76U A141G | 0.18 |
| U45C U85C A136G | 0.47 |
| G97U U119C U134C A141G | 0.18 |
| A42G G89A A117G U132C | 0.06 |
| U15C U115C G144U | 1.1 |
| U15C U26C U62C G135A | 0 |
| C17U G60A C113A A142G | 0.04 |
| G21A U29C A30G | 0.17 |
| U20C U87C C128U | 0.45 |
| U13A A31U U47C A136G A138G | 0.34 |

| Variant | self-cleavage |
| --- | --- |
| G35A U81A A140G | 1.51 |
| A57G U62C A79G A129G | 0 |
| U85A G125A A138G | 0.09 |
| A31U G75A A117U | 1.37 |
| U5A U9C U13C U73C G75A U115C A121G A141G | 0 |
| U20C U46C U52C | 1.24 |
| A64U A77U A129U | 0.43 |
| A78G U81A C113A U119G | 0.13 |
| A65U U96G A117U | 0.1 |
| U1C A43G U109C | 1.89 |
| U20C U100C A138G | 2.09 |
| U62C A77G A136G | 0 |
| U12C A22U C37U U96C | 0.2 |
| U15C C19U C84U C103A | 0.21 |
| G8A A31U U96A | 0.23 |
| A57G A124G A136U A142G | 1.46 |
| U1C U73A A141G | 0.71 |
| U15C U46A A59C | 1.31 |
| U5A U13C U85C | 0.36 |
| U12G G48A U109C | 0.84 |
| A69G A79G U132C | 0.14 |
| U5C U26G U45A U87C A124C A138U | 2.3 |
| U13C A64C U143C | 0.56 |
| U39A A79G U85C U104C A129U G139U | 0.38 |

| Variant | self-cleavage |
| --- | --- |
| A31U C63A U109C C123U A124G A136G | 0.06 |
| U46C C66U U109C | 0.05 |
| U13C A42U A59G U62A U143A | 0.12 |
| A43G U73C A124U | 1.84 |
| U52C A65G A129G | 0.21 |
| U45C C98U G126A | 0.43 |
| U20G U39C U134C | 0.77 |
| U39C A59G A65G | 0 |
| U85A U100C A138G | 0.1 |
| U46C A64U A138G | 0.59 |
| U45C A94U A136G | 0.17 |
| U1A U108C A138U | 2.57 |
| G35A A67G G72A A140G | 0.26 |
| A42C A43G U87A | 0.14 |
| U5C U9C U47C U62G A138G | 0 |
| U13A U81C U87G U143A | 0 |
| U9A A79G A107G | 0.89 |
| A69U A79G U81C A124G | 0 |
| A42U G55A U115C | 0.1 |
| G7C A69U U87C | 0.16 |
| G40A U96C U102C | 0.03 |
| A24G G53U A78U U130C | 1.43 |
| A22G A43U U73C A124G | 1.58 |
| U15C U47G U112C | 1.15 |

| Variant | self-cleavage |
| --- | --- |
| U12C A59G U109C | 0.18 |
| U20C U47C U102C A117G | 1.02 |
| A2U G48A A78G | 0.59 |
| C19A A24U U62C A94G U108C | 0 |
| U73G A94G G97A G126U | 0 |
| G44A U100C G114U A124G A142G | 1.69 |
| C66U A94G U96A | 0.04 |
| U14C A59G A141G | 0.1 |
| U5C A43U U52A A77U A79U | 1.13 |
| U12A U13A U100A A124G | 1.23 |
| A22G U112A A136G | 1.23 |
| U46G A65G U104G | 0 |
| A6G U13A C51A A77G A121G | 1.15 |
| A30G U46G A57U U109C | 1.15 |
| U52A U87A U102C | 0.38 |
| A2U A6U A77G A142G | 1.34 |
| U9A A24G A42G U81A U87A | 0.32 |
| U12C A43U U62C G83U U100C | 0.08 |
| U14C U23A G88A A140G | 0.07 |
| A65G U119A A141G | 0 |
| U13C A59G U96C | 0 |
| U45C A57G G72A U104A | 0.5 |
| A69G C71U A136G | 0.18 |
